Measurements as given in paper PMC4336329 (PLoS ONE, 2015).
About 14,000 (4.5%) of roughly 310,000 compounds showed an effect of 50% or more. Effects have a minus sign here. This is one part of the list.

target: human ether-à-go-go-related gene (hERG) potassium channel (human, UniProt Q12809); experiment: primary screen, population patch clamp on CHO cells stably expressing hERG
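Further: peak tail current of the secondary pulse compared with the same well before compound.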

human ether-à-go-go-related gene (hERG) potassium channel, sequence (Q12809 whole entry, looked up): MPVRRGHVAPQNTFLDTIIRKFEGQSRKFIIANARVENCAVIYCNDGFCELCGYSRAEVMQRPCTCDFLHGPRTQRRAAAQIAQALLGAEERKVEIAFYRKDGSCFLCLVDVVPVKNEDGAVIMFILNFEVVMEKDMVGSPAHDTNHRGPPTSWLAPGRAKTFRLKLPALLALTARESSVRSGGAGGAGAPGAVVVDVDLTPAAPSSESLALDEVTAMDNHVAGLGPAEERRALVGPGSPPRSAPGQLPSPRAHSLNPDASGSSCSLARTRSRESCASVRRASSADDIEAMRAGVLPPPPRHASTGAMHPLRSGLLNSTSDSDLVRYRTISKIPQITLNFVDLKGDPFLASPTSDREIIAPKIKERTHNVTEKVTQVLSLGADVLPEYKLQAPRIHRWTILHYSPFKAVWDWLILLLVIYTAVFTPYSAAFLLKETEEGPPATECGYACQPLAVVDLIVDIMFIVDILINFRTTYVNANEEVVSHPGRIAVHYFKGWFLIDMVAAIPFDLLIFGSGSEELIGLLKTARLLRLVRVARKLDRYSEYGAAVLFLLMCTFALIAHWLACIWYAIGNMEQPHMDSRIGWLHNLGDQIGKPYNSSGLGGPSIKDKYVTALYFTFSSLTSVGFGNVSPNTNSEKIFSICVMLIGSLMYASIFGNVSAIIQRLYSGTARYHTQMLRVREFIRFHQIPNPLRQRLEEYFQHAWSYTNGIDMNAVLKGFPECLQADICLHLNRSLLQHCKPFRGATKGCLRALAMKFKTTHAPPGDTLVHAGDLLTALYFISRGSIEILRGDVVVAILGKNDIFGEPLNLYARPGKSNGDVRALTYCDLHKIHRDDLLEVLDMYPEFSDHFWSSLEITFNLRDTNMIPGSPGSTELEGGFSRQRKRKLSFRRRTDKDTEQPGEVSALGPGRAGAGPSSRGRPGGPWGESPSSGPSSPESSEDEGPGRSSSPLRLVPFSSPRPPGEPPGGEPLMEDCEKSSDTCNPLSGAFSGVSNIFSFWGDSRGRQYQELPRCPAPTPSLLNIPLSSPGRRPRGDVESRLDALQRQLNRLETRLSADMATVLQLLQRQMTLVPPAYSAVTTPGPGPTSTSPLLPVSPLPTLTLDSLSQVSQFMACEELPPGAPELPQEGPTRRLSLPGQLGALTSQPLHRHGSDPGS

Going from O=C(c1cc(=O)[nH]c2ccccc12)N1CCN(S(=O)(=O)c2ccc3ccccc3c2)CC1 to COc1ccccc1N1CCN(C(=O)CCc2c[nH]c3ccccc23)CC1, the “hERG current change (%, negative = inhibition) at 10uM” value rises from -18.8% to 3.69%.

Compared with Cc1ccc(-n2cnn(-c3ccc([N+](=O)[O-])cc3[N+](=O)[O-])c2=O)cc1, Cc1ccc(S(=O)(=O)Nc2ncnc3sc(C)c(C)c23)cc1 is lower in “hERG current change (%, negative = inhibition) at 10uM” value: 5.44% for the first, -9.2% for the second.

Compared with Cc1c(N=Nc2c(O)[nH]c(=S)[nH]c2=O)c(=O)n(-c2ccccc2)n1C, COc1cccc(/C=C2/C(=O)NN(c3ccc(Br)cc3)C2=O)c1O is higher in “hERG current change (%, negative = inhibition) at 10uM” value: 16.6% for the first, 20.9% for the second.

Going from Cc1cc(Cl)ccc1N=c1ssnc1Cl to CCn1c(O)c(/C=C2\C=Nc3ccccc32)sc1=Nc1ccc(C)cc1, the “hERG current change (%, negative = inhibition) at 10uM” value falls from 20.1% to -0.663%.

First: Cc1ccc(C(=O)N(Cc2cccs2)C2CCS(=O)(=O)C2)cc1 (stereo not shown)
Second: CCN(CC)CCNC(=O)c1ccc(NC2=NC3CS(=O)(=O)CC3S2)cc1 (stereo not shown)
The “hERG current change (%, negative = inhibition) at 10uM” value of the first is lower: 0.98% for the first, 12.1% for the second.

Compared with COc1cc(CNc2ccc3[nH]c(=O)[nH]c3c2)ccc1OCc1ccc(F)cc1Cl, O=C(NCc1ccc(Cl)cc1)C1CCCN1C(=O)Nc1ccc(F)cc1 (stereo not shown) is lower in “hERG current change (%, negative = inhibition) at 10uM” value: -9.89% for the first, -40% for the second.

First: CCN(CC)S(=O)(=O)c1ccc2c(c1)nc(CCC(=O)Nc1cccc(C(F)(F)F)c1)n2CC
Second: CC(NC(=O)CSc1nc2c(c(C(F)(F)F)n1)CCc1ccccc1-2)c1ccccc1 (stereo not shown)
The “hERG current change (%, negative = inhibition) at 10uM” value of the first is lower: -5.84% for the first, 5.13% for the second.

Going from O=C(CSc1cn[nH]n1)Nc1ccccc1F to O=C(COC(=O)Cc1ccccc1)Nc1ccc(SC(F)F)cc1, the “hERG current change (%, negative = inhibition) at 10uM” value falls from 9.07% to 5.27%.

First: O=C(Nc1cccc(Cl)c1N1CCCC1)c1ccc(Br)o1
Second: CS(=O)(=O)c1ccc(Cl)c(NC(=O)c2cc(S(=O)(=O)N3CCOCC3)ccc2N2CCCC2)c1
The “hERG current change (%, negative = inhibition) at 10uM” value of the first is higher: -5.58% for the first, -81.3% for the second.

Compared with COc1ccc(OC)c(/C=C/C(=O)OCC(=O)Nc2nnc(-c3ccccc3)o2)c1, COc1ccc(C2C(C(=O)C(C)(C)C)=C(O)C(=O)N2Cc2ccccc2)cc1 (stereo not shown) is higher in “hERG current change (%, negative = inhibition) at 10uM” value: -3.14% for the first, 10.5% for the second.

Compared with C=CCNC(=S)N1CCC(Cc2ccccc2)CC1, O=C(NCc1ccco1)C1CCCN(S(=O)(=O)Cc2ccccc2)C1 (stereo not shown) is higher in “hERG current change (%, negative = inhibition) at 10uM” value: -25.9% for the first, 11.3% for the second.

First: CN1CCN(C(=O)c2ccc(CNS(=O)(=O)c3ccc(F)c(Cl)c3)cc2)CC1
Second: Cc1ccc(S(=O)(=O)N2CCOCC2)cc1C(=O)OCC(=O)NCc1ccccc1
The “hERG current change (%, negative = inhibition) at 10uM” value of the first is higher: -9.16% for the first, -20.2% for the second.

Going from Cc1occc1C(=O)N1CCN(c2ccccc2)CC1 to COc1cc(NC(=S)N2CCN(S(=O)(=O)c3ccccc3)CC2)cc(OC)c1, the “hERG current change (%, negative = inhibition) at 10uM” value rises from -8.67% to 6.68%.

Compared with Cc1cc(=O)[nH]c(SCC(=O)c2ccc3c(c2)NC(=O)CO3)n1, Cc1onc(-c2ccccc2)c1C(=O)Nc1ccc(S(=O)(=O)N2CCCC2)cc1 is lower in “hERG current change (%, negative = inhibition) at 10uM” value: 5.75% for the first, -14.2% for the second.

Compared with O=C(Oc1ccc(Br)cc1)c1cccnc1, COC(=O)N/N=C\c1ccc(OC(=O)c2ccco2)cc1 is higher in “hERG current change (%, negative = inhibition) at 10uM” value: 4.3% for the first, 19.8% for the second.

First: Cc1ccc(S(=O)(=O)N2CCC(C(=O)N3CCC(C(=O)NCc4cccnc4)CC3)CC2)cc1
Second: COc1ccc(S(=O)(=O)N(CC(=O)N2CCCCCC2)c2ccccc2OC)cc1
The “hERG current change (%, negative = inhibition) at 10uM” value of the first is higher: 9.69% for the first, -27.2% for the second.

First: CC1CC(C)CN(CCCNC(=O)Cc2c(C(=O)O)n(C)c3ccccc23)C1 (stereo not shown)
Second: COCCn1c(SCC(=O)NC(=O)NCc2ccccc2)nc2ccccc2c1=O
The “hERG current change (%, negative = inhibition) at 10uM” value of the first is lower: -15.9% for the first, -1.29% for the second.

Compared with O=C(Cc1ccccc1)Nc1ccc(CN2CCOCC2)cc1, CSc1ccccc1C(=O)NC(C)c1ccc(-n2ccnc2)cc1 (stereo not shown) is lower in “hERG current change (%, negative = inhibition) at 10uM” value: -9.66% for the first, -39.7% for the second.

Going from CCn1cc(C2C3=C(CC(C)(C)CC3=O)N(c3ccccc3)C3=C2C(=O)CC(C)(C)C3)c(C)n1 to Cc1cc(C)cc(NC(=O)NC2CCN(CC(=O)Nc3cccc(Cl)c3C)CC2)c1, the “hERG current change (%, negative = inhibition) at 10uM” value falls from -2.03% to -2.07%.

Compared with O=P(COCCOCCOCCOCP(=O)(c1ccccc1)c1ccccc1)(c1ccccc1)c1ccccc1, COc1ccc(C(C(=O)NC2CCCC2)N(CC2CCCO2)C(=O)Cc2cccs2)cc1OC (stereo not shown) is higher in “hERG current change (%, negative = inhibition) at 10uM” value: -21.1% for the first, 2.61% for the second.

Compared with CC1CCCCN1S(=O)(=O)c1cccc2nonc12 (stereo not shown), CC(C)CCNC(=O)C1CC(c2cccc([N+](=O)[O-])c2)=NO1 (stereo not shown) is lower in “hERG current change (%, negative = inhibition) at 10uM” value: 4.3% for the first, -19.4% for the second.

With CCCCCCNc1cc(C)oc(=O)c1C(C)=O the “hERG current change (%, negative = inhibition) at 10uM” value was -34.2%.
